B1: LaM-4 (VHH)
VHH: QVQLVESGGSLVQPGGSLRLSCAASGRFAESSSMGWFRQAPGKEREFVAAISWSGGATNYADSAKGRFTLSRDNTKNTVYLQMNSLKPDDTAVYYCAANLGNYISSNQRLYGYWGQGTQVTVSS
B2: LaM-2 (VHH)
VHH: QVQLVESGGGLVQAGGSLRLSCATSGFTFSDYAMGWFRQAPGKEREFVAAISWSGHVTDYADSVKGRFTISRDNVKNTVYLQMNSLKPEDTAVYSCAAAKSGTWWYQRSENDFGSWGQGTQVTVSK

Assays:
[1] = target: T1, mCherry (Discosoma); test: label under gel lane; legend: in vitro Kd for mCherry by SPR
T1 construct: Immunogen is mCherry-His6; SPR says recombinant mCherry; also called recombinant mCherry-His6; Discosoma mCherry

[2] = target: T1, mCherry; test: SPR, mCherry immobilized
[3] = target: T2, GFP-His6 (eGFP) (Aequorea victoria, UniProt P42212 = GFP); test: bead binding: nanobody-Dynabeads + fluorescent protein, eluate on SDS-PAGE
T2 construct: SPR and bead assays speak only of recombinant GFP or eGFP; also called recombinant GFP; A. victoria (Av) GFP

[4] = target: T3, DsRed (Discosoma sp., UniProt Q9U6Y8 1-225); test: as above
T3 construct: Recombinant fluorescent protein; construct not described; also called standard DsRed; DsRed from Discosoma (Ds)

Chain of DsRed (Q9U6Y8 whole entry): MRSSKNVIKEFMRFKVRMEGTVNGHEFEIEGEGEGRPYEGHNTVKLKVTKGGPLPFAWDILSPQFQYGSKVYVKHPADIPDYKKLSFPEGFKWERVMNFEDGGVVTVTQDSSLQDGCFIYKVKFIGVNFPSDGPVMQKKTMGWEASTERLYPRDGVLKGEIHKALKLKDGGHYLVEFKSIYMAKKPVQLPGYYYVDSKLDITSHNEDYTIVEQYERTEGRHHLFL

| Binder | Kd [1] | Kd [2] | binding result [3] | binding result [4] |
| --- | --- | --- | --- | --- |
| B1 | 0.18 nM | 0.18 nM | no binding | – |
| B2 | 0.49 nM | 0.49 nM | no binding | no binding |

Reference: patent publication US20170212130A1 (ROCKEFELLER UNIVERSITY, published 2017)
